# Measurements as given in PubChem BioAssay AID485297 (National Center for Advancing Translational Sciences (NCATS), 2010).
# Hit rate of the full screen: of about 320,000 compounds, about 9,100 (2.8%) were called active. The shares of active, inactive and inconclusive entries below differ from those in the screen. Calls follow the shape of the dose curve; as a rule, active = well fitted activation curve with a large enough effect; inconclusive = small, poorly fitted or top-dose-only effect; inactive = no such curve, though single readings can be large or run the other way. No potency is given beside an inconclusive call; the fits are too rough.
# Assay: qHTS Assay for Rab9 Promoter Activators; also: nearly all actives have a fitted effect of over 60% in size
# Conditions: Huh7 Rab9 promoter-luciferase reporter, luminescence, 24 h; series mostly up to 9.22 µM
# How it was run: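 Luciferase signal after 10 min detection reagent at ambient indicates Rab9 promoter upregulation; stably transfected Huh7 cells were treated 24 h with compound in DMSO at 37 °C, 5% CO2.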
# Potency is read from the fitted curve at half-maximal effect; tags tell the direction and shape of the fitted curve.
row,Compound,Potency
1,Cc1ccc(CC(=O)Nc2ncc([N+](=O)[O-])s2)cc1,"inconclusive [activator, partial curve]"
2,c1ccc(-n2ncc3c(N4CCC5(CC4)OCCO5)ncnc32)cc1,"inconclusive [activator, partial curve]"
3,O=C(COc1ccc(Cl)cc1)N1CCCCC1,"inconclusive [activator, partial curve, poor fit]"
4,C/C(=N\NC(=O)COc1ccc(C(C)(C)C)cc1)c1ccc(-n2ccnc2)cc1,"inconclusive [activator, single point]"
5,COc1ccc(-c2cc3ccccc3s2)cc1[C@H]1[C@H]2C=CC[C@@H](C)[C@@H]2C(=O)N1Cc1ccccc1,active: 2820 nM
6,NC(=O)c1cc(Cc2ccccc2)sc1NC(=O)c1ccco1,active: 4470 nM
7,CCNC(=O)c1c(O)c2cccc3c2n(c1=O)CC3,"inconclusive [activator, single point]"
8,C/C(=N\NC(=S)NC1CCCCC1)c1ccc(C)o1,"inconclusive [activator, partial curve]"
9,CC(C)Oc1ccc(/C=N/NC(N)=S)cc1,"inconclusive [activator, partial curve]"
10,O=[N+]([O-])c1ccc2cn(-c3ccccc3)nc2c1,active: 2000 nM
11,CC(C)c1ccc(NC(=O)C2CC2c2ccccc2)cc1 (stereo unspecified),inactive
12,C=CCn1c(SCCN2CCCC2)nc2c([nH]c3ccccc32)c1=O,inactive
13,COCCn1c(COc2ccc(C)cc2)nc2ccccc21,"inconclusive [activator, single point]"
14,COc1cc2c(cc1OC)CN(c1ccc(F)cc1[N+](=O)[O-])CC2,"inconclusive [activator, single point]"
15,O=c1c(Br)c(NCc2ccccc2)cnn1-c1ccc(F)cc1,"inconclusive [activator, partial curve]"
16,O=C(N/N=C/c1cn(-c2ccccc2)nc1-c1ccc2c(c1)OCCO2)c1ccncc1,"inconclusive [activator, single point]"
17,NC(=O)CSc1ncc(-c2ccccc2)[nH]1,"inconclusive [activator, single point]"
18,CC(C)NC(=O)COc1ccc(S(=O)(=O)N(C)Cc2ccccc2)cc1,inactive
19,COc1ccc(NC(=O)c2noc3c2CCCCC3)cc1,"inconclusive [activator, full curve, poor fit]"
20,Cc1ccc(C(=O)C(C)OC(=O)c2cc(=O)[nH]c3ccccc23)cc1 (stereo unspecified),inactive
21,C=CCNC(=O)c1ccc(-n2cccc2)cc1,"inconclusive [activator, single point]"
22,Cc1ccc(-c2nc3ccccn3c2NCc2ccc3c(c2)OCO3)cc1,"inconclusive [activator, partial curve]"
23,COc1ccc2cc3cc(C(=O)N4CCCCCC4)oc3nc2c1,active: 501 nM
24,O=C(Nc1nc2ccccc2[nH]1)c1ccc(F)c(S(=O)(=O)N2CCOCC2)c1,"inconclusive [activator, single point]"
25,CCCCOc1ccc(-n2nc(C)cc2C)nn1,"inconclusive [activator, single point]"
26,CSc1nnc(-c2sccc2-n2cccc2)o1,inactive

row,Compound,Potency
1,COc1ccc(-c2nnc(SCc3ccccn3)n2C)cc1,"inconclusive [activator, partial curve]"
2,CC1CCN(c2ccc(C(=O)NCCc3ccccc3)cn2)CC1,"inconclusive [activator, partial curve]"
3,COc1cccc2oc3cc(C#Cc4ccccn4)ccc3c(=O)c12,active: 3160 nM
4,Cc1ccc(CSc2nc(N)cc(N)n2)cc1,"inconclusive [activator, partial curve]"
5,CC(=O)NCCNC(=O)c1ccc(CSc2ccc(Cl)cc2)cc1,active: 2820 nM
6,CC(=O)N/N=c1\sc2ccccc2n1C,inactive
7,CC(=O)Nc1cccc(-c2nnc(SCC(=O)n3c4c(c5ccccc53)CCCC4)n2C)c1,inactive
8,c1ccc2[nH]c(SCc3cscn3)nc2c1,"inconclusive [activator, partial curve]"
9,O=C(Nc1cccc(-n2cnnn2)c1)C1CCCN(Cc2cccc(C(F)(F)F)c2)C1 (stereo unspecified),inactive
10,Cc1c(C(=O)Nc2ccccn2)sc2nc3n(c(=O)c12)CCC3,active: 891 nM
11,COC(=O)c1noc(-c2ccc(C)cc2)n1,inactive
12,CSc1ccccc1C(=O)OCC(=O)N1CCCC1=O,inactive
13,O=C(Nc1cccc([N+](=O)[O-])c1)c1ccc2c(c1)OCCO2,"inconclusive [activator, partial curve]"
14,CC1(C)C(C=C(Cl)Cl)C1C(=O)N1CCN(c2ccccc2)CC1 (stereo unspecified),"inconclusive [activator, single point]"
15,CCn1c(SCC(=O)Nc2cc(OC)ccc2OC)nnc1C1CCCCC1,inactive
16,CSc1cccc(NC(C)=O)c1,inactive
17,COc1cc(C(C)=O)ccc1Oc1ncnc2c1cnn2-c1ccc(F)cc1,inactive
18,COc1ccccc1/C=C/C(=O)NCC(=O)N/N=C/c1ccccc1,inactive
19,O=C(N/N=C/c1ccc(Br)s1)Nc1ccccc1,"inconclusive [activator, partial curve]"
20,CC(=O)c1ccc(NC(=O)CSc2ccc(-c3ccc4c(c3)OCO4)nn2)cc1,"inconclusive [activator, single point]"
21,COc1ccc(C(=O)OCC(=O)NC(=O)NC2CCCC2)cc1OC,"inconclusive [activator, single point]"
22,Nc1cc(N)nc(SCc2ccccc2)n1,active: 2820 nM
23,CC1CCc2c(sc(NC(=O)COC(=O)c3ccc(O)cc3)c2C#N)C1 (stereo unspecified),"inconclusive [activator, single point]"
24,O=C(O)c1ccc(N=Nc2c(O)[nH]c3cc(Cl)ccc23)cc1,active: 100 nM
25,O=C(Nc1ccccc1F)Nc1cccc2ccc(O)cc12,"inconclusive [activator, single point]"
